Publication PMC5913127 (2018)

Molecular target: m266
Experiment: SPR

Chain of m266 (P05067 672-699): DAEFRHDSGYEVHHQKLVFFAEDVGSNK

B1: Aβ_([…]) peptide (peptide)
peptide: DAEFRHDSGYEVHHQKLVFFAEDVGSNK
Binder B1 has a Kd of 0.84 nM and a koff of 0.00012 s⁻¹.
